The whole screen tested about 310,000 compounds, of which about 14,000 (4.5%) showed an effect of 50% or more. Effects have a minus sign here. Some of the results follow.

42 compounds from paper PMC4336329 (PLoS ONE, 2015) can be followed below.
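Also: peak tail current of the secondary pulse compared with the same well before compound.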

In the experiment the target is human ether-à-go-go-related gene (hERG) potassium channel (human, UniProt Q12809). In words: primary screen, population patch clamp on CHO cells stably expressing hERG.
Sequence of human ether-à-go-go-related gene (hERG) potassium channel (Q12809 whole entry, looked up): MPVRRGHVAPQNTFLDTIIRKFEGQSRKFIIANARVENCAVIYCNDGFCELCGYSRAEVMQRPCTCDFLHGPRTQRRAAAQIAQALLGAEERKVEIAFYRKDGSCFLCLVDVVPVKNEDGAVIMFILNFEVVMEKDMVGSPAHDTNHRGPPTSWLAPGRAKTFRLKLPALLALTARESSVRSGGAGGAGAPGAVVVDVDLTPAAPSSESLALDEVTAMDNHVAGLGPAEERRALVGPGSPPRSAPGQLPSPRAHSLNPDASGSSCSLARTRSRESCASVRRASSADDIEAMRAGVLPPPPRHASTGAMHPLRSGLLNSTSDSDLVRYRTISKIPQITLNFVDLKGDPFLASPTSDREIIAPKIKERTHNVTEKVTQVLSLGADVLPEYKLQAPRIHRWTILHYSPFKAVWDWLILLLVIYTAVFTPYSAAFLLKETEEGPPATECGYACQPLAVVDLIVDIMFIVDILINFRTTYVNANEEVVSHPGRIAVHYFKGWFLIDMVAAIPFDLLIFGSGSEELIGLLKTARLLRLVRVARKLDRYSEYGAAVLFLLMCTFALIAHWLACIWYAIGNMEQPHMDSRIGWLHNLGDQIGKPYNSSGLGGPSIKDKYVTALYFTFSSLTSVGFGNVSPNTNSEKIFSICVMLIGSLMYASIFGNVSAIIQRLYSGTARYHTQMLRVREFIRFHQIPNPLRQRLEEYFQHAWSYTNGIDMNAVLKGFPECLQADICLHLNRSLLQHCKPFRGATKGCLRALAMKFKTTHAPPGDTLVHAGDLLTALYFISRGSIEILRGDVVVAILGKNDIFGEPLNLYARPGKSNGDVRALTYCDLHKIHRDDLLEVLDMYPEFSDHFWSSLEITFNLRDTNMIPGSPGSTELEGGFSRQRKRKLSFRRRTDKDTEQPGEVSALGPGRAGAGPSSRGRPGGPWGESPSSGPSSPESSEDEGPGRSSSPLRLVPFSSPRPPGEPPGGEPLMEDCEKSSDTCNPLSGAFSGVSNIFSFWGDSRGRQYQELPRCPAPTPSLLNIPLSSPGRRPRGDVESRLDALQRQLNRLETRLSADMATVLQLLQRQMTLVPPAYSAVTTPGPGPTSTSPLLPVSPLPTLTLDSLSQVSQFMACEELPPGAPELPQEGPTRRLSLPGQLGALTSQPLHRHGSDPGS
As for `CCC(C)NC(=O)c1cc(CC(C)C)on1` (stereo not drawn), the “hERG current change (%, negative = inhibition) at 10uM” value came to 8.94%. The value for `CCCCCCCC[n+]1cccc2c3ccccc3ccc21.[I-]` was -84.3%.

For `O=C(CF)NC(NC(=S)Nc1ccccc1O)C(Cl)(Cl)Cl` (stereo not drawn), the “hERG current change (%, negative = inhibition) at 10uM” value stood at 34.7%. Take `CN1CCN(c2ccc(S(=O)(=O)N3CCCCC3)cc2NC(=O)/C=C/c2ccc(OC(F)F)cc2)CC1`: the “hERG current change (%, negative = inhibition) at 10uM” value is -39.2%. Turning to `CN1CCc2ccccc2Cc2[nH]c3ccccc3c2CC1`, the “hERG current change (%, negative = inhibition) at 10uM” value is reported as -23.5%. In the case of `COc1cc(C(=O)OC(C)CN2C(C)CCCC2C)cc(OC)c1OC.Cl` (stereo not drawn), the “hERG current change (%, negative = inhibition) at 10uM” value is given as -50.2%. Take `CCOC(=O)C1(Cc2ccccc2)CCN(Cc2cnn(-c3ccccc3)c2)CC1`: the “hERG current change (%, negative = inhibition) at 10uM” value is recorded as -81.4%. For `N=c1c(C(=O)NCCN2CCOCC2)cc2c(=O)n3ccccc3nc2n1CCCN1CCOCC1`, the “hERG current change (%, negative = inhibition) at 10uM” value is listed as -4.43%. The value for `CC(=O)Nc1cc(NC(C)=O)cc(C(=O)OCC(=O)c2ccc3c(c2)NC(=O)CO3)c1` was 3.64%.

Turning to `O=C(CCc1ccc(S(=O)(=O)N2CCOCC2)cc1)OCc1nc2ccccc2s1`, the “hERG current change (%, negative = inhibition) at 10uM” value is -19.7%. On to `CCc1nc2ccccc2c(C(=O)OCC(=O)NC(=O)c2cccn2C)c1C`, for which the “hERG current change (%, negative = inhibition) at 10uM” value worked out at 7.02%. The value for `CCOC(=O)N1CCN(C(=O)CCc2cc(OC)c(OC)c(OC)c2)CC1` was 9.89%; that for `Cc1cccc(OCC(=O)OCC(=O)c2c(N)n(C)c(=O)n(C)c2=O)c1` was -13.1%. Take `CCCCN(CC)CCCNC(=O)c1cn(-c2ccc(OC)cc2)c(=O)c2ccccc12`: the “hERG current change (%, negative = inhibition) at 10uM” value is -56.5%. Next, `Cc1nn(CCC(=O)O)c2nc(-c3cccnc3)cc(C(F)(F)F)c12.Cl`: 14.2%; `CC(C)C(NC(=O)C1CCCCC1)C(=O)Nc1ccccn1` (stereo not drawn): 9.08%. The value for `CCN1CCN(c2cc(C)c3cc(NC(=O)c4ccc(OC)c(OC)c4)ccc3n2)CC1` was -46%; that for `CC(C)N=C(NC#N)SCc1ccccc1F` was 3.93%. Next, `NC(=O)CC(NC(=O)Cc1cccc2ccccc12)c1ccc(NCCN2CCCCC2)c([N+](=O)[O-])c1` (stereo not drawn): 7.38%; `COc1ccccc1C(=O)NC(=O)Nc1c(C)cc(C)cc1C`: -2.82%; `COc1cc2c(cc1NC(=S)Nc1cccc3ccccc13)oc1ccccc12`: 8.07%. As for `CN(C(=O)COc1ccccc1)c1nnc(C23CC4CC(CC(C4)C2)C3)s1`, the “hERG current change (%, negative = inhibition) at 10uM” value stood at 5.79%. In the case of `CCOc1ccc(OCC)c(Nc2cc(C)nc3nc(C)nn23)c1`, the “hERG current change (%, negative = inhibition) at 10uM” value was -23.8%. The value for `Cc1nonc1OCCNCCNc1ccccc1[N+](=O)[O-]` was -23.4%; that for `CC(=O)Nc1ccc(NC(=O)COc2ccc(S(=O)(=O)N3CCCC3)cc2)cc1` was 11%; that for `CCOCCCN(C(=O)c1snc(C(N)=O)c1N)C(C(=O)NC1CCCC1)c1ccc(F)cc1` (stereo not drawn) was -12%.

On to `O=Nc1c(-c2c(O)[nH]c3cc(Br)ccc23)[nH]c2ccccc12`, for which the “hERG current change (%, negative = inhibition) at 10uM” value was 13%. For the compound `Cn1cccc1/C=N/N1CCN(c2ccccc2)CC1`, the “hERG current change (%, negative = inhibition) at 10uM” value is 16%. Take `CC(C)[C@H](NC(=O)[C@@H]1Cc2ccccc2CN1C(=O)OC(C)(C)C)C(=O)NCC1CCC(C(=O)O)CC1` (stereo partly drawn): the “hERG current change (%, negative = inhibition) at 10uM” value stood at 8.54%. Consider `O=C(CN1c2ccccc2Sc2ccccc21)NNC(=O)Nc1ccc(Cl)c(Cl)c1`, for which the “hERG current change (%, negative = inhibition) at 10uM” value came out at 9.79%. Next, `CC(C)[C@H](NC(=O)c1ccccc1)C(=O)OCC(=O)N1CCc2ccccc2C1`: -11.5%; `CNC(=O)CC1C(=O)N(C)C(=S)N1NC(=O)c1ccccc1` (stereo not drawn): 9.36%.

With `COc1ccccc1/C=N/NC(=S)NCc1ccco1`, the “hERG current change (%, negative = inhibition) at 10uM” value is given as -7.47%.

With `Cc1nc2cc(OCc3cc(C(=O)NC(C)c4cn(C)nc4C)no3)ccc2s1` (stereo not drawn), the “hERG current change (%, negative = inhibition) at 10uM” value is listed as 4.16%. Next, `c1ccc(-c2ccc3nnnn3n2)cc1`: 5.72%.

`Cc1cc(C)nc(N/C(=N\S(=O)(=O)Cc2ccccc2)Nc2cccc(Cl)c2C)n1`: the “hERG current change (%, negative = inhibition) at 10uM” value is reported as -3.72%. The value for `CCCCNC(=S)N(C)N=C1CCC(c2ccccc2)CC1` (stereo not drawn) was 8.08%. For the compound `O=C1CCCCCN1C(=O)c1ccc(C(=O)N2CCCCCC2=O)cc1`, the “hERG current change (%, negative = inhibition) at 10uM” value is -2.83%.

`CC(C)(C)c1ccc(OC(=O)CN2C(=O)C3C4CCC(C4)C3C2=O)cc1` (stereo not drawn): the “hERG current change (%, negative = inhibition) at 10uM” value worked out at 4.44%. Turning to `COc1cnc(-c2ccccn2)nc1Oc1ccc(Cl)c2ccccc12`, the “hERG current change (%, negative = inhibition) at 10uM” value is -12.7%. Next, `CC1(C)CC(NC(=O)C(=O)NCCc2ccccc2)CC(C)(C)N1`: 1.81%; `COc1ccc(C2=CC(=O)OC(C)(c3ccccc3)O2)cc1` (stereo not drawn): -0.79%.
